This is one part of the list.
system: PfAP2-HC AP2 domain (GST-tagged); assay: gcPBM binding intensity (ln(normalized median fluorescence intensity)); higher = stronger DNA binding
In short: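 Probes on an Agilent 4 × 180k array were primer-extended, double-stranded and 36 bp long, taken from intergenic genomic regions, with negative controls added. GST-tagged P. falciparum DNA-binding domains from E. coli, about 25 μg on average, were applied to the array for 1 h in 1× PBS containing 1% milk, 0.2 mg/ml BSA, 0.5% salmon testes DNA and 0.03% Triton X-100. Binding intensity, obtained after Alexa488 anti-GST antibody detection and a 488 nm scan, is the highest Masliner-normalised natural-log median intensity across replicate spots of either probe orientation.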

Sequence | gcPBM binding intensity (ln)
CTTATACATATATATAGTACATATATCATTTTTATG [XGTACX_site4462] | 10.1
AATATAAATGTGATTACACACAACACATTTAAATGT [CACACA_site1212] | 10.1
AATTTTCTTAAAATTTGTACGTATATATTTAATATA [XGTACX_site3906] | 9.36
GTCATATATAATTGTTGTACATTTTTATAATTATGT [XGTACX_site8091] | 9.83
TATATATACTATAACACACATACACCCAAAAAAAAA [CACACA_site536] | 10.2
AAAAAATTATATTATGCACACATCGTTATATATATA [CACACA_site1201] | 9.86
AAAAAAGACCATGTTAGTACATAAGATTTTTTTCAT [XGTACX_site4298] | 9.53
ATATATAATATTTATTGTACTATTTTATTTTTATAA [XGTACX_site705] | 9.62
TTTGACATACCTCTTGCATGTGAAAAACTTTTCGCT [TGCATGCA_site364] | 9.52
AACATACGAATATTCACACATAAATATATAAATCGC [CACACA_site4672] | 9.81
ATTTCTATTTGGGTTAGTACATATAAGTCTATTTTC [XGTACX_site3234] | 9.69
ACTCTTTTAACGCAAAGTACTTTTTAAAATATTTCG [XGTACX_site7534] | 9.65
TATTATATATATATCACACATATATTCATGTACATA [CACACA_site5432] | 9.79
TATATAATCGAGTGCACACACAAAAAAAAAGTGAAC [CACACA_site1483] | 10.4
TTTTTTTTTTCTTTTTGTACATATTCATAACAAGTA [XGTACX_site2784] | 9.53
AATACGTTATTATTTTGTACATATAAATAATAAGTT [XGTACX_site815] | 9.58
ATATATATATATATATGTACACATATTATAAAAAAA [XGTACX_site8644] | 9.81
TATATATATAAATACACACACACCGTCCGTGTTAAA [CACACA_site5623] | 9.96
ATATATATTATATAGTGTACCTATGTATAATAATAT [XGTACX_site1683] | 9.61
TAACTCTATTTTTTTGCATGCTGAAGCTATGAGTTT [TGCATGCA_site821] | 9.61
TGACATAATGTGTGTAGTACATATATCGTTATTTGA [XGTACX_site5152] | 9.91
TGAATAAATATAAAAGGTACACATATAAATATATAT [XGTACX_site6349] | 9.74
TATGTAGGTAAAAATTGTACTTTTTTTTTAATATTT [XGTACX_site2303] | 9.51

Sequence | gcPBM binding intensity (ln)
TATATATTTCATAATACACACGAAAAAAAAAAAAAA [CACACA_site8972] | 9.68
ATAATATTATGTGTGAATATATCTTTAAAAAGGATA [GTGCAC_negctrl_site15] | 9.83
ATAAAAATAAAATAAGGTACAGACGAAAAAATTGAA [XGTACX_site5097] | 9.87
CACAAAAATAGACACACACACATATAAATAAATATA [CACACA_site6598] | 10.4
ATATATTATAATGATACACACAAGAAATAAAATTAC [CACACA_site3095] | 10
TTCTAGAAAACTGATCGTACAAATAAATATAGACAC [XGTACX_site2808] | 9.7
TATAAAATAAAAGTAAATATATATATATATATATAT [TGCATGCA_negctrl_site208] | 9.47
AAAATAGGGATCACGTGTACATATAAAGTGACATAC [XGTACX_site8190] | 9.88
AATGCATACACATATTGTACTAAGCCATACAACACA [XGTACX_site305] | 9.65
AATATACAAAATATCACACATATAAAATAATATATA [CACACA_site6067] | 9.8
GATATATAAACATATACACACAAAAACATATTTATA [CACACA_site6734] | 9.96
TGATAATTTCATTTTGCATGTGACAATACAAGATGT [TGCATGCA_site203] | 9.5
AATGGTTCAACGTAGTGTACGTAATAAATAATAAAT [XGTACX_site8668] | 9.7
AAATAATATGTAATCAAATTCACCAAACGAAAAAAA [TGCATGCA_negctrl_site33] | 9.79
ATTATATGTAACACGTGTACCTATTTATGTATGCTT [XGTACX_site5748] | 9.79
TATAATATTTACGACAGTACATATATATATATGTAT [XGTACX_site8332] | 9.73
AAATAATTTGTTGACACACACACACCCATACATATA [CACACA_site2285] | 10.7
TACATATAAAAGTACACACACACACCCATATATATA [CACACA_site941] | 11
TAAAATAAATTGTGCACACATATTTATAAATATGAA [CACACA_site2331] | 9.91
ATGGACTTTTATAGTTGTACATACTATGAGAACTTT [XGTACX_site2800] | 9.59
TATTGCCCGAAACACACACACATATATATATATATA [CACACA_site2491] | 10.4
GTTTATCACAGCCACGCACACATAATATATGTATAT [CACACA_site3669] | 9.98
ACAAAAAAATAAGGTGCACACAAAAAAAAAAAAAAA [CACACA_site8171] | 9.8

Sequence | gcPBM binding intensity (ln)
GAGTTCAGTTTTTGTTGTACTTATTCTTAATATGTC [XGTACX_site6083] | 9.69
TTTTTTTTTTTTTGATGTACTTATTTAATAAGATAT [XGTACX_site376] | 9.4
TATATGGCATATTTCACACACACATAATGAATATTA [CACACA_site9181] | 10.1
ATATAGCATATAATTTGTACACAGGCCATACCTGAA [XGTACX_site533] | 9.59
AGATGATATACGTAAACACACAAATAAAAAAAATTT [CACACA_site3327] | 9.83
TTTGTTTTATCTTATATGCACACGATAAAAAAAAAA [CACACA_site2673] | 9.39
ATCCAAAAAATTAATGCATGCGCAAAAAATAGCTTA [TGCATGCA_site615] | 9.57
AAAAAAAAAACATACACACACATATATATATATATG [CACACA_site1586] | 10.7
TGTCCTTATTTGCACACACACATATAAGAAATTTAA [CACACA_site7485] | 10.2
TATAAACATATCATATGTACATATATTTTTATAAAA [XGTACX_site8882] | 9.38
ATATATTTTTGTAGTGTGCACGTTTATATGGTGAAA | 9.69
TTTAACGTTGAATATACACACATATATATATATATA [CACACA_site3698] | 9.66
AAGAAAAAATAAAAAATAAAAATAAAAAATAAAAAA [TGCATGCA_negctrl_site274] | 9.56
TAAGGATGAATCCTTTGTACATATATATATATATAT [XGTACX_site1242] | 9.64
TTTTTTTAAATATACACACACATTTATACATATATA [CACACA_site3400] | 10.1
GTTATACATTTTGATTGTACATAAACCATTTGAGCA [XGTACX_site7283] | 9.48
TGAAAAGAAAACACATGTACAAATATATAAATATAA [XGTACX_site6098] | 9.81
TTTATATATATTCTCACACACTTTTTATTTTAACAA [CACACA_site4534] | 9.92
ATAAATTTCCTCGTTTTTTTTTTTTTTTTTTTTTTT [CACACA_negctrl_site1173] | 9.48
AAAAATATTTATAACACACACATAATATTTATATAT [CACACA_site7238] | 10.1
ATATATTTACATATTACACACAATATTGTACACATA [CACACA_site6564] | 9.94
CAAGAAATTTACAAACGTACATATGTTCATACAAGG [XGTACX_site2372] | 9.81
TTAGAGAAACAAAATTGTACATTATAAATTTGCCTT [XGTACX_site440] | 9.43

Sequence | gcPBM binding intensity (ln)
TATTTGAAAGCCAATTGTACTTTAGTTTTTGAAACA [XGTACX_site5542] | 9.4
CTATTTCAGAAACACACACACACAAACAAACATATA [CACACA_site978] | 10.4
TTAAATATAATATTATGTACTAAATATTTTTTTATT [XGTACX_site6121] | 9.58
TTTCTTTTTAAATAGGTGCATATTTTTATAAATATA | 9.51
TATATATATATATATATATATATGTATGTGCATTTA [TGCATGCA_negctrl_site53] | 9.56
ATATAAAAATGTAAGGGTACATAATAAATAATCAAA [XGTACX_site5217] | 9.99
ATTTAGAAAAATAAAACACACATATATATGTAAATA [CACACA_site4113] | 9.84
ATCTGTCGACAGGACAGTACACAGTAGCCAGGAAAT [XGTACX_site1994] | 9.67
GAAGGAAAAACAGAATGTACATAAATAAACGTATAT [XGTACX_site753] | 10.1
ACAAAATTTACAAAATGTACAAAATTTACAAAATGT [XGTACX_site6464] | 9.56
TATATCTTACTTTTTGCACACACTAATATTATTGTT [CACACA_site1640] | 10.4
AATACGGCAAACATTAAAAAATATAATAACAATAAA [CACACA_negctrl_site868] | 9.82
GGAAAAAATATATGCACACCCCCCAAAAAAAAAAAA [CACACA_site2222] | 10.3
AAAAAATATTAATATAGTACTTTATATTTATAAGTA [XGTACX_site6895] | 9.47
TTTTTGTTATTTTTAGTGCACATTTAAGGGTGTATT | 9.7
ATATATATATATACATGTACATATATACATTATATT [XGTACX_site936] | 9.69
AAACATTTAAATGGAAACACAGAAAAATGAAAAATG [CACACA_negctrl_site457] | 9.96
TTTTTTTTTTGTAATACACACCACTATATGTTATTT [CACACA_site5087] | 10.1
TAAAAAATAAAATACACACACATATTTATATTTATA [CACACA_site6737] | 10.2
CAACAACATTTTTCATGTACATATATTTTATAATAT [XGTACX_site519] | 9.72

Source: the supplement of paper PMC11417369
